Experimental data reported in PubChem BioAssay AID485341 (National Center for Advancing Translational Sciences (NCATS), 2010).
Among all 330,000 compounds or so, about 1,700 (0.52%) were called active. Inconclusive results, whose numbers are uncertain, are shown with a selection of clear calls. Calls follow the shape of the dose curve; as a rule, active = well fitted inhibition curve with a large enough effect; inconclusive = small, poorly fitted or top-dose-only effect; inactive = no such curve, though single readings can be large or run the other way. A potency beside an inconclusive call is a rough fit, not a confirmed value.

What follows are compounds tested against Beta-lactamase (Escherichia coli (strain K12)) (UniProt P00811) (assay: qHTS Inhibitors of AmpC Beta-Lactamase (assay without detergent)). Settings: AmpC nitrocefin hydrolysis, absorbance 480 nm, 0.0001% Triton; series mostly up to 57.1 µM.
UniProt P00811, sequence (P00811 whole entry, looked up): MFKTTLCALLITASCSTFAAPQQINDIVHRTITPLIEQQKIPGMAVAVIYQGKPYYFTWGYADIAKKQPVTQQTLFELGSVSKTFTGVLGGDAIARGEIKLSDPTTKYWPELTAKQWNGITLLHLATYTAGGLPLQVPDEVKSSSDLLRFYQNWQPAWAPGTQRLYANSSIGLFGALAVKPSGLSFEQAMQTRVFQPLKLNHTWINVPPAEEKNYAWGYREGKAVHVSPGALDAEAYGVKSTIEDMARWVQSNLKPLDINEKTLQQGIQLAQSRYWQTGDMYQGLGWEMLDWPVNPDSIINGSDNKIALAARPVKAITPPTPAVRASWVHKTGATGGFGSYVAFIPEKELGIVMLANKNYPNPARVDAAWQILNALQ
In short: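 20 mM phosphate pH 7.0 + 0.01% (detergent screen) or 0.0001% Triton X-100; 5.3 nM AmpC reagent; cpd preinc 15 min RT; nitrocefin (800 uM stock) to start; A480 q20 s × 4 min; Activity was normalised to no-enzyme and no-compound control wells.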
Also: nearly all actives have a fitted effect of over 20% in size.
Potency is read from the fitted curve at half-maximal effect; tags tell the direction and shape of the fitted curve.

| Structure (SMILES) | Potency |
| --- | --- |
| CCOc1cccc(CNc2ccc(O)cc2)c1OCc1ccc(Cl)cc1Cl | inactive |
| COc1ccc(N2CCN(C(=O)COC(=O)CNC(=O)c3cccc(OC(F)F)c3)CC2)cc1 | inactive |
| N#CCCN(C(=O)CN1CCN(S(=O)(=O)c2ccc3c(c2)OCCO3)CC1)c1ccc(F)cc1 | inactive |
| CC1CCCN(CCCNS(=O)(=O)c2cc(Br)cc3c2N(C(=O)C2CC2)CC3)C1 (stereo not drawn) | inactive |
| CC1OC(Nc2cccc3ccccc23)C(O)C(O)C1O (stereo not drawn) | inactive |
| Cc1cccc(C(=O)N[C@H](C(=O)Nc2ncc(C)s2)C(C)C)c1 | inactive |
| COc1ccc(-c2csc(Nc3ccc(S(N)(=O)=O)cc3)n2)cc1OC | active: 15.8 µM |
| Nc1c2c(nc3sc4c(c13)CCCCC4)CCCC2 | inactive |
| N#Cc1c(NC(=O)COC(=O)C2CC3C=CC2C3)oc(-c2ccccc2)c1-c1ccccc1 (stereo not drawn) | inconclusive: 28.2 µM [inhibitor, single point] |
| CCCCc1cc(=O)oc2cc(C)c(CN3CCCC3)c(O)c12 | active: 15.8 µM |
| O=C1NC(=O)N(c2ccccc2)C(=O)/C1=C/C=C/c1ccco1 | inactive |
| Cn1c2ccccc2c2cc(C(=O)NNS(=O)(=O)c3ccc(F)cc3)sc21 | inconclusive: 6.31 µM [inhibitor, single point] |
| COc1cccc2c(=O)n(CC(=O)Nc3ccc(F)cc3)ccc12 | inconclusive: 6.31 µM [inhibitor, full curve, poor fit] |
| O=C1/C(=C\c2ccco2)SC(=S)N1c1ccc(O)cc1 | inconclusive: 25.1 µM [inhibitor, partial curve] |
| O=C(CSCc1ccco1)Nc1cc(C(F)(F)F)ccc1N1CCOCC1 | inactive |
| COC(=O)CCCNC(=O)c1ccc(S(=O)(=O)NCc2ccco2)cc1 | inconclusive: 39.8 µM [inhibitor, single point] |
| COCCN1C(=S)N[C@@H](c2ccccc2)C(C(=O)OC)=C1C | inactive |
| COC(=O)c1ccc(CSCc2ccc(C(=O)OC)o2)o1 | inactive |
| O=C(O)COc1ccc(Br)cc1/C=N/O | inactive |
| Cc1cccc2[nH]c(-c3ccc(NC(=O)c4ccco4)cc3)nc12 | inconclusive: 7.08 µM [inhibitor, partial curve] |
| COc1cc2c(C#N)c(N3CCN(c4ccccc4OC)CC3)nc(N)c2c(N)n1 | inconclusive: 6.31 µM [inhibitor, single point] |
| C=CCN(CC=C)S(=O)(=O)c1ccc(NC(=S)NC(=O)c2ccco2)cc1 | active: 35.5 µM |
| CC(C)CCNC(=O)CN(Cc1cccs1)C(=O)CCC(=O)Nc1nccs1 | inconclusive: 1.12 µM [inhibitor, partial curve, poor fit] |
| Cc1cc(C)c(S(=O)(=O)NCc2ccc3c(c2)OCO3)c(C)c1 | inactive |
| CC(Sc1nc(-c2ccccc2)cc(C(F)(F)F)n1)C(=O)Nc1sc2c(c1C#N)CCC2 (stereo not drawn) | inconclusive: 10 µM [inhibitor, partial curve] |
| COc1ccc(-c2csc(NC(=O)CSc3ccc(Br)cc3)n2)c(OC)c1 | active: 35.5 µM |

| Structure (SMILES) | Potency |
| --- | --- |
| Cc1ccc(N(CC(=O)N/N=C/c2cccc(Br)c2)S(C)(=O)=O)cc1 | active: 14.1 µM |
| Nc1nsnc1C(=O)NCCO | inactive |
| Cc1cccc(C)c1NC(=O)CN(C)C(=O)CN1C(=O)NC2(CCCC2)C1=O | inconclusive: 39.8 µM [inhibitor, single point] |
| Cc1ccc(C(=O)Nc2cnc3ccccc3c2)cc1 | inactive |
| CCOC(=O)C1=C(C)N(C[C@@H]2CC[C@@H](Cc3ccc(-c4ccccc4)cc3)O2)C(=O)NC1c1cccc2ccccc12 (stereo partly drawn) | inconclusive: 3.16 µM [inhibitor, partial curve] |
| COC(=O)c1ccc(CSc2ccc3nnc(-c4cccc(F)c4)n3n2)o1 | inconclusive: 11.2 µM [inhibitor, partial curve, poor fit] |
| Cc1cc(C)cc(C(=O)Nc2ccc(NC(=O)c3cccs3)cc2)c1 | inconclusive: 22.4 µM [inhibitor, single point] |
| COC(=O)c1ccccc1NC1c2ccccc2C(=O)N1c1cccnc1 (stereo not drawn) | active: 7.08 µM |
| Cc1nc(-c2cccc(N)c2)cs1 | inconclusive: 6.31 µM [inhibitor, full curve, poor fit] |
| CCCCN(CCCC)CCCN1CC(=O)N2[C@@H](Cc3c([nH]c4ccccc34)C2(C)C)C1=O | inactive |
| Cn1c(/C=N/NC(=O)c2ccccc2Br)nc2ccccc21 | inactive |
| O=C1N/C(=C/c2cccn2-c2ccc(F)cc2)C(=O)N1Cc1ccccc1 | inconclusive: 35.5 µM [inhibitor, single point] |
| CCOC(=O)c1c(/N=C/c2ccc(O)cc2O)sc2c1CCC2 | active: 10 µM |
| CCOc1ccc(NC(=O)Cn2nnc(C(=O)NCc3cccs3)c2N)cc1 | inconclusive: 31.6 µM [inhibitor, single point] |
| COc1cccc(/C=N/NC(=O)c2cc(-c3cccn3C)n[nH]2)c1 | active: 12.6 µM |
| CCOc1cc(NC(=S)NCCCN2CCOCC2)c(OCC)cc1NC(=O)c1ccco1 | inactive |
| Nc1cc(C(F)(F)F)cc([N+](=O)[O-])c1N | inconclusive: 3.98 µM [inhibitor, single point] |
| Cc1ccc2nc(/C(C#N)=C\c3cc(O)ccc3[N+](=O)[O-])[nH]c2c1 | inconclusive: 31.6 µM [inhibitor, partial curve] |
| O=C(Cc1nc2ccccc2[nH]1)N/N=C/c1ccccc1 | inactive |
| COc1ccc(NC(=O)c2cc(S(=O)(=O)N3CCc4ccccc43)cn2C)cc1 | inconclusive: 22.4 µM [inhibitor, partial curve] |
| CCc1noc(C)c1C(=O)N1CCN(S(=O)(=O)c2c(C)c(C)cc(C)c2C)CC1 | inconclusive: 28.2 µM [inhibitor, single point] |
| O=C(CS(=O)(=O)c1ccc(F)cc1)Nc1nccs1 | active: 31.6 µM |
| CCS(=O)(=O)Nc1cccc(-c2nc3cccnc3s2)c1C | inconclusive: 11.2 µM [inhibitor, partial curve, poor fit] |
| COc1ccc(C(=O)O/N=C(\N)c2ccccc2)c(OC)c1 | inactive |
| CCOC(=O)Nc1nc(-c2ccc(Cl)cc2Cl)cs1 | inactive |
| COc1cccc(NC(=O)C(Cc2ccccc2)NC(=O)C2CCC(C)CC2)c1 (stereo not drawn) | inconclusive: 15.8 µM [inhibitor, partial curve] |

| Structure (SMILES) | Potency |
| --- | --- |
| Nc1cc([N+](=O)[O-])ccc1Nc1ccc(O)cc1 | active: 31.6 µM |
| Cc1cc(NC(=O)CSCC(=O)OC(C)C(=O)c2cc(C)c(C)cc2C)no1 (stereo not drawn) | inconclusive: 39.8 µM [inhibitor, single point] |
| CCOc1cccc2sc(N(CCN(CC)CC)C(=O)c3cccc(N4C(=O)CCC4=O)c3)nc12 | inconclusive: 28.2 µM [inhibitor, single point] |
| CC(C)OP(C)(=O)CN1CCN(CP(C)(=O)OC(C)C)CC1 (stereo not drawn) | inactive |
| Cc1cc(NC(c2ccc(Cl)cc2)c2ccc3cccnc3c2O)no1 (stereo not drawn) | active: 4.47 µM |
| NNC(=O)c1ccc(Cn2cc(Cl)cn2)cc1 | inconclusive: 28.2 µM [inhibitor, single point] |
| N#Cc1cccc(NC(=O)Nc2cccs2)c1 | inconclusive: 25.1 µM [inhibitor, single point] |
| O=[N+]([O-])c1ccc(-c2cnc(SCc3ccccc3Cl)[nH]2)cc1 | inactive |
| O=C(c1ccco1)N1N=C(c2cccs2)CC1c1ccccc1O (stereo not drawn) | inconclusive: 3.55 µM [inhibitor, full curve, poor fit] |
| COc1ccc(Nc2ncnc3nc[nH]c23)cc1OC | active: 12.6 µM |
| Oc1sc(C=Nc2ccccc2)c2ccccc12 | inconclusive: 0.126 µM [inhibitor, full curve, poor fit] |
| CCCNC(=O)c1ccc2c(=O)n(Cc3ccco3)c(=S)[nH]c2c1 | inconclusive: 12.6 µM [inhibitor, partial curve, poor fit] |
| COCCCn1c(SCC(=O)Nc2ccc(C)cc2)nc2ccccc2c1=O | inactive |
| Cc1ccc(S(=O)(=O)NCC(c2ccccc2)N2CCN(CCC#N)CC2)cc1 (stereo not drawn) | inconclusive: 5.62 µM [inhibitor, single point] |
| COCCN(CC1CCCN(C2Cc3ccccc3C2)C1)C(=O)c1cccs1 (stereo not drawn) | inactive |
| CCOc1ccccc1NC(=S)Nc1ccccc1F | inconclusive: 0.126 µM [inhibitor, full curve, poor fit] |
| O=C1CC(CC(=O)N/N=C/c2ccccc2[N+](=O)[O-])=NN1 | inactive |
| CC1CC(=O)Nc2ccccc2N1S(=O)(=O)c1ccc(Br)cc1 (stereo not drawn) | inconclusive: 6.31 µM [inhibitor, single point] |
| COC(=O)/C(=C/c1cccc([N+](=O)[O-])c1)NC(=O)c1ccc(OC)cc1 | inactive |
| COc1cc2cc(CN(Cc3cccs3)C(=S)Nc3ccccc3)c(=O)[nH]c2cc1OC | inactive |
| Cc1c(C#N)c(NC(=O)c2ccccc2)n(Cc2ccccc2)c1C | inconclusive: 6.31 µM [inhibitor, single point] |
| CC(C)Nc1nnc(SCC(=O)Nc2ccc3c(c2)C(=O)c2ccccc2C3=O)s1 | active: 10 µM |
| COc1ccc(C2=NC(C)(C)Cc3cc(OC)c(OC)cc32)cc1OC | inactive |
| COc1ccccc1NC(=O)c1nn(-c2ccccc2)ccc1=O | active: 0.141 µM |
| Clc1ccc2oc(-c3cccnc3NCc3ccccc3)nc2c1 | inconclusive: 6.31 µM [inhibitor, single point] |
| O=C(CCN1C(=O)S/C(=C\c2cccs2)C1=O)NC1=NCCS1 | active: 22.4 µM |
